# Source: PMC5515408
# Some of the results follow. At the low end of the ranking the order means little.
# Molecular target: MAX:MAX (p21) (UniProt P61244-2)
# Assay: protein-binding microarray (anti-MAX antibody)
# Conditions: PBM: 15 mM Tris-HCl pH 7.5, 100 mM KCl, 0.075% NP40, 7.5 mM beta-mercaptoethanol, 375 ng/ul BSA, 8 ng/ul poly(dA-dT):(dA-dT), 550 ng complex, 60 min, room …; high values mean tight binding; double strand, one strand shown; sequences stand for … in CCGGC…TTAATAGCTAAGATTACTATATCGACG
row,Sequence,binding signal (log2 normalized fluorescence)
1,TGACTCTGCGTA,-0.794
2,TACGTGCCGCGA,2.47
3,TGAAACTCAGTA,-0.843
4,TGAGCCGGGGTA,-0.812
5,TGAACATCAGTA,-0.211
6,TGATAATATGTA,-0.59
7,TGAGCTTTTGTA,-1.3
8,TGATCCTCTGTA,-0.751
9,TGACCGCTAGTA,-0.618
10,TGATTCTAGGTA,-1.41
11,CGACACGCTGTA,3.08
12,TGATCTCGCGTA,0.19
13,TGAGAAGATGTA,-0.551
14,TGACGCTAAGTA,-0.829
15,TGATGTAAGGTA,-0.254
16,TGAGAAGTCGTA,-1.05
17,TGATTTACAGTA,-0.781
18,TGACATCTGGCA,0.914
19,TGACGTGTTGTA,1.35
20,TGATAAGCAGTA,-0.832
21,TGAAGAGGAGTA,-0.693
22,TGAATTCTTGTA,-0.798
23,TGATCCGTGGTA,0.161

row,Sequence,binding signal (log2 normalized fluorescence)
1,TGACCTTAAGTA,-0.378
2,TGAGATATCGTA,-1.17
3,TGACACTCGGGA,0.023
4,TGAAGGTTGGTA,-0.58
5,TGAGACCCTGTA,-0.583
6,TGAATGCCCGTA,0.244
7,TGACCTTTGGTA,-0.703
8,TGATTTTGTGTA,-1.11
9,TGACCGTCCGTA,-0.314
10,TGAATTATTGTA,-1.24
11,TGACACGTTTAA,2.59
12,TGAACGTTCGTA,0.09
13,TGAACCGACGTA,-0.59
14,TGACCCGGTGTA,0.329
15,TAACACTTGGTA,0.603
16,TGATTTCTAGTA,-1.47
17,TGAAGCTTCGTA,-0.873
18,TGACACATTGTA,1.99
19,TGAAGGGCAGTA,-0.488
20,TGACCCAAAGTA,-0.422
21,TGATACACCGTA,-0.545
22,TGACTGATCGTA,-0.373
23,TGAGCCGAAGTA,-1.17

row,Sequence,binding signal (log2 normalized fluorescence)
1,TGCCAGGTAGTA,-0.365
2,TGACTTTGGGTA,-0.965
3,TGACATTCTGTA,0.0984
4,TGAGATACTGTA,-0.621
5,TGACAGAGCGTA,-0.605
6,ATCCACGTGGTA,3.28
7,AATCTAGTCTAC,-0.667
8,TGACACGGGTTA,2.17
9,TGATTCGAGGTA,-0.852
10,TGAGTTTCCGTA,-1.03
11,TGACCTCTCGTA,-0.5
12,ACTATCTTTGTT,0.00085
13,TGAAGAGCTGTA,-0.929
14,TGAGACTTAGTA,-0.834
15,TGAGCACAGGTA,0.728
16,TGAGCTTGGGTA,-1.05
17,TGAACCGTGGTA,0.942
18,TGACCAAACGTA,-0.418
19,TGAAGGTCGGTA,-0.597
20,TGAGACTGGGTA,-0.944
21,TGACGGCTTGTA,-0.841
22,TGATCGCACGTA,0.308
23,TGAATCGTTGTA,-0.465

row,Sequence,binding signal (log2 normalized fluorescence)
1,TGACTAGCAGTA,-0.892
2,TGAAACGTGGTA,2.95
3,TGACACGTTGAA,2.87
4,TGAATAAGCGTA,-0.651
5,TGAAATTTTGTA,-1.49
6,TGATCGTGTGTA,1.12
7,TGAAGAAAAGTA,-1.05
8,TGACCACATGTA,3.09
9,TGACTCAGCGTA,-0.59
10,TGACGCCAGGTA,-0.342
11,TGAGCCTCGGTA,-0.847
12,TGTCACCTTGTA,0.794
13,TGTTACGTGGTA,0.972
14,TGACATGTGATA,3.17
15,TGAGCCCGAGTA,-1.07
16,TGATCCGCTGTA,-0.689
17,TTACACGTGGTA,3.3
18,TGATAAGATGTA,-0.756
19,TGACGCTGTGTA,-0.204
20,TGATTTCAGGTA,-1.19
21,TGACTCCGTGTA,0.0761
22,TGAGGTTTCGTA,-1.02
23,TCACACATGCTA,3.15

row,Sequence,binding signal (log2 normalized fluorescence)
1,TGACACGTATTA,1.21
2,GCCGATTACCCT,-1.04
3,TGATTAACGGTA,-0.892
4,TGAAAATTGGTA,-1.07
5,TGACACTAGGTA,0.178
6,TAACACGTGGAA,3.35
7,TGAGCGTGGGTA,2.35
8,TGAGTTCACGTA,-0.381
9,TGAGGGGGGGTA,2.32
10,GGACACGTGTGA,3.15
11,TGACGCAGCGTA,-0.13
12,TGACGATTTGTA,-0.952
13,TGAATGATAGTA,-0.224
14,TGACACCAAGTA,0.085
15,TGATTCCGCGTA,-0.773
16,TGATCCATAGTA,-0.834
17,TGAAGGCGGGTA,-0.384
18,TGATTCTGAGTA,-1.02
19,TTCTACGTGGTA,1.32
20,TGATATGCCGTA,-0.595
21,AGTCACATGGTA,3.15
22,TGAAGCCCTGTA,-0.819
23,TGAATCGTCGTA,-1.17

row,Sequence,binding signal (log2 normalized fluorescence)
1,TGAGCATCCGTA,-0.573
2,TGACACGGATTA,0.43
3,TGACGTCTGGTA,-0.298
4,ACTCACGTGGTA,3.13
5,TGATGAGATGTA,-0.389
6,TGACACGTAATA,0.894
7,TGAAGGTCAGTA,-0.245
8,TGAAGCGACGTA,-0.532
9,TGAGGGTTCGTA,-0.732
10,TGAAACACCGTA,-0.0366
11,TGAGAAGCCGTA,-0.996
12,TGACGAAGGGTA,-0.694
13,TGAACTGTGGTA,-0.167
14,TGACGGGGGGTA,2.03
15,TGACACGTGAGT,3.25
16,TGACCATGTGTA,3.23
17,TGAACTGCTGTA,-0.0834
18,TGAACGACAGTA,-0.362
19,TGATGGGGTGTA,0.609
20,TGATACCGGGTA,-0.949
21,TGAGCCTAAGTA,-1.2
22,AGACACGTGGTG,3.28
